Consider 25 molecules from article PMC4336329 (PLoS ONE, 2015).

In all, about 310,000 compounds went through this assay and about 2,200 (0.71%) showed an effect of 50% or more. Effects have a minus sign here. The list shows a part of the results.

In the assay the target is human ether-à-go-go-related gene (hERG) potassium channel (human, UniProt Q12809). Briefly: primary screen, population patch clamp on CHO cells stably expressing hERG.
Chain of human ether-à-go-go-related gene (hERG) potassium channel (Q12809 whole entry, looked up): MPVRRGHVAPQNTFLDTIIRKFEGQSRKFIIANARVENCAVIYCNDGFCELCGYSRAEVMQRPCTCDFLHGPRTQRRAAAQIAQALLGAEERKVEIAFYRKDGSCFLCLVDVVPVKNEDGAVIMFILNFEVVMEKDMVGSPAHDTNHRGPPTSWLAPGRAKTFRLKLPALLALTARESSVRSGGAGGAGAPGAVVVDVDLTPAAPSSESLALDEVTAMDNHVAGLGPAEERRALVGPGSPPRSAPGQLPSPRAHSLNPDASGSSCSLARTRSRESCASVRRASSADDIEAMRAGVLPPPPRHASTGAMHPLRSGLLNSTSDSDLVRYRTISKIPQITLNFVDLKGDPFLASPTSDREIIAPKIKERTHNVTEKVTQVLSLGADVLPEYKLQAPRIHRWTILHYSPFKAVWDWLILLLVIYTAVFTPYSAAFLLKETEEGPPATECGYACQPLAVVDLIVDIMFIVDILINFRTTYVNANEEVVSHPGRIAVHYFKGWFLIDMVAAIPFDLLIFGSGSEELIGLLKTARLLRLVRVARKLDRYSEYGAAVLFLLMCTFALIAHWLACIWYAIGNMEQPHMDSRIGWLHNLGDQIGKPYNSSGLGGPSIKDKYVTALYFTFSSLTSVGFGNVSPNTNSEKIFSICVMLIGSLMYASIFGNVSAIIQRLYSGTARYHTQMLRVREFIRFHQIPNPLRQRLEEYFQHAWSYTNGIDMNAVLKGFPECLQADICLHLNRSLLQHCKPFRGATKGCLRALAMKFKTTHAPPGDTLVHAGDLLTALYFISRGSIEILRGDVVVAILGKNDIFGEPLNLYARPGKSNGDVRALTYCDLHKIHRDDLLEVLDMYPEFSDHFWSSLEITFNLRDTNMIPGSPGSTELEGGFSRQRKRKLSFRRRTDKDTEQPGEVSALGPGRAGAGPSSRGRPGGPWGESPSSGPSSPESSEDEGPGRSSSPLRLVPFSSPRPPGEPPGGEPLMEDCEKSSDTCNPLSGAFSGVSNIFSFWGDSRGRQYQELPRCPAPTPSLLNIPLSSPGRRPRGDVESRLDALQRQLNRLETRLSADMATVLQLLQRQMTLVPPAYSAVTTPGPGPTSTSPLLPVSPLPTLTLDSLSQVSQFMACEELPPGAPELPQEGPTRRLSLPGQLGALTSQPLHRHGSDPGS
On to `COc1ccc(/C=N/N2C(=O)CSC2=S)cc1`, for which the “hERG current change (%, negative = inhibition) at 1uM” value turned out to be 10.5%.
Regarding `CSc1nsc(NC(=O)Cc2ccccc2)n1`, the “hERG current change (%, negative = inhibition) at 1uM” value is on record as 8.95%.
Regarding `CCOC(=O)C1CCCN(S(=O)(=O)Cc2ccc(Cl)cc2)C1` (stereo not shown), the “hERG current change (%, negative = inhibition) at 1uM” value turned out to be 8.79%.
Take `Cc1nn(-c2ccccc2)c(C)c1/C=N/NC(=O)c1cc(C2CC2)[nH]n1`: the “hERG current change (%, negative = inhibition) at 1uM” value came to 4.75%.
For `COc1cc(/C=N/NC(=O)CCN2CCCCC2)ccc1O`, the “hERG current change (%, negative = inhibition) at 1uM” value was 6.8%.
Under `CCn1c(O)c(C=Nc2ccccc2)n(-c2ccccc2)c1=S` stands 9.73%.
Turning to `CCOC(=O)C1=C(COC(=O)CCOc2cc(C)ccc2C)NC(=O)NC1C` (stereo not shown), the “hERG current change (%, negative = inhibition) at 1uM” value is reported as 1.31%.
Regarding `O=C(c1ccc2c3n(nc2c1)-c1ccc(Cl)cc1CO3)N1CCCCC1`, the “hERG current change (%, negative = inhibition) at 1uM” value was -1.57%.
As for `Cc1cccc(Cn2cc(/C=C/[N+](=O)[O-])c3ccccc32)c1`, the figure is -2.15%.
For `CCCN(CC1CC1)c1nc(N)c(C#N)c(CC#N)c1C#N`, the “hERG current change (%, negative = inhibition) at 1uM” value was determined as 10.3%.
Consider `Cc1ccc(S(=O)(=O)NCCc2nc3ccccc3[nH]2)cc1`, for which the “hERG current change (%, negative = inhibition) at 1uM” value is listed as 11.1%.
Consider `CCN1CCN(C(=S)Nc2cccc(C(F)(F)F)c2)CC1`, for which the “hERG current change (%, negative = inhibition) at 1uM” value worked out at 3.67%.
For `Cc1occc1-c1nnc(SCC(=O)Nc2ccccc2)n1Cc1ccccc1`, the “hERG current change (%, negative = inhibition) at 1uM” value is recorded as -19.2%.
With `Cc1ccc(C(=O)NNC(=O)c2ccc3c(c2)OCCO3)cc1`, the “hERG current change (%, negative = inhibition) at 1uM” value is 4.72%.
With `CN1C(=O)NC(c2ccc(O)cc2)C2=C1CN(c1ccccc1)C2=O` (stereo not shown), the “hERG current change (%, negative = inhibition) at 1uM” value came to 8.29%.
As for `O=C(CC(=O)N/N=C/c1ccc(Cl)cc1Cl)NCc1ccccc1`, the figure is 2.74%; as for `Cn1cccc1C(=O)NCc1ccc(Cl)cc1`, 10.2%.
Regarding `CCOC(=O)N1CCN(C(=O)c2ccc3nc(SCc4ccc(F)cc4)n(C)c3c2)CC1`, the “hERG current change (%, negative = inhibition) at 1uM” value is -2.71%.
As for `CNC(=O)c1ccc(NC(=O)Cc2ccc(S(=O)(=O)N3CCOCC3)s2)cc1`, the figure is 15.6%; as for `COc1cc(C(=O)NCC2CCCCC2)cc(OC)c1OC`, -18.8%; as for `COc1cccc(/C=N/NC(=O)c2[nH]c(C)c(C(=O)N/N=C/c3cccc(OC)c3O)c2C)c1O`, 11.9%.
Consider `CCOC(=O)c1sc(NC(=O)c2cc(-c3ccccc3)nc3ccccc23)c(C#N)c1C`, for which the “hERG current change (%, negative = inhibition) at 1uM” value amounted to 16.7%.
With `CCCN(CCC)CCNC(=O)C1c2ccccc2C(=O)N2CCc3ccccc3C12` (stereo not shown), the “hERG current change (%, negative = inhibition) at 1uM” value came out at 0.0598%.
For `CCCCOc1ccc(CC(=O)NCC(=O)O)cc1`, the “hERG current change (%, negative = inhibition) at 1uM” value came out at 6.2%.
As for `CCOC(=O)c1c(NC(=O)Cn2cc([N+](=O)[O-])cn2)sc2c1CCC2`, the figure is 4.74%.
